# Assay results: publication PMC4336329 (PLoS ONE, 2015)
# Among all 310,000 compounds or so, about 14,000 (4.5%) showed an effect of 50% or more. Effects have a minus sign here. This is one part of the list.
# Target: human ether-à-go-go-related gene (hERG) potassium channel (human, UniProt Q12809)
# Test: primary screen, population patch clamp on CHO cells stably expressing hERG
# 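Also: peak tail current of the secondary pulse compared with the same well before compound.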
# Chain of human ether-à-go-go-related gene (hERG) potassium channel (Q12809 whole entry, looked up): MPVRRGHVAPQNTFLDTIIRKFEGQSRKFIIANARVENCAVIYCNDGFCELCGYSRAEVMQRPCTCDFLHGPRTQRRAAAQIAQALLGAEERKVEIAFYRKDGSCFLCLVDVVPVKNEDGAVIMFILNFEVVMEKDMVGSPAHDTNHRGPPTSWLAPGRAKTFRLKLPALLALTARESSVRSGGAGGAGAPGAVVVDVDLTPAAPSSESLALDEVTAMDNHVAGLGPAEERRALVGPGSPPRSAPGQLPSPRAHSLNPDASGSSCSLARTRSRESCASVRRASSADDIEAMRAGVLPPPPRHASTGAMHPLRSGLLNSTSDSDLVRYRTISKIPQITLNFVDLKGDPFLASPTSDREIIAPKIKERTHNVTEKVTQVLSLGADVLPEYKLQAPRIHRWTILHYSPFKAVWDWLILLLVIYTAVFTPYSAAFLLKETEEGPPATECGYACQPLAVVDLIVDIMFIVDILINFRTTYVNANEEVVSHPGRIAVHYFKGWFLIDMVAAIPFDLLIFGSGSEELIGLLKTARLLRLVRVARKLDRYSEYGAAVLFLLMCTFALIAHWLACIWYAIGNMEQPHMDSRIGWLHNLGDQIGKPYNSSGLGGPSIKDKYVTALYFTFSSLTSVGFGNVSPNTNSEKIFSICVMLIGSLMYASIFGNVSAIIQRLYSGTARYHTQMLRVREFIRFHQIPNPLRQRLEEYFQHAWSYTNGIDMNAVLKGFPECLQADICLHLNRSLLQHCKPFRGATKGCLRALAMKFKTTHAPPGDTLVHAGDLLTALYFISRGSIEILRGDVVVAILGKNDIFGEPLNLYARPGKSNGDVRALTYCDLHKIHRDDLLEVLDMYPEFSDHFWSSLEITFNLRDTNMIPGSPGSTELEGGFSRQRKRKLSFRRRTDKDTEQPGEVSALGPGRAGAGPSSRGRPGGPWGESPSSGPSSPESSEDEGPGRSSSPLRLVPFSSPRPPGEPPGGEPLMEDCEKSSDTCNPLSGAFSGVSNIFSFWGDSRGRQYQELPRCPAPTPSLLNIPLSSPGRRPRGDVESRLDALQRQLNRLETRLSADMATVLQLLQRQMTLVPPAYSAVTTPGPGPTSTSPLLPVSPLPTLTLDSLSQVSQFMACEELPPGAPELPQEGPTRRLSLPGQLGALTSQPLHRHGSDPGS
row,SMILES,"hERG current change (%, negative = inhibition) at 10uM"
1,Cc1ccccc1NC(=O)NCCN1C(=O)C2C3C=CC(C3)C2C1=O (centres unmarked),15%
2,O=C(Nc1nc(-c2ccccn2)cs1)c1ccc(Br)s1,7.34%
3,CCOC(=O)c1c(NC(=O)c2c(Br)cnn2CC)sc(C)c1C,13.3%
4,Cc1ccc(C(NC(=O)N2CC(C)OC(C)C2)C(Cl)Cl)cc1F (centres unmarked),-3.68%
5,CCOC(=O)c1c(NC(=O)C(=O)N/N=C/c2ccc(OCC)cc2)sc2c1CCCCC2,4.71%
6,Cc1c(C(=O)N2CCCCC2)c(S(=O)(=O)NCc2ccc(N(C)C)cc2)c(C)n1C,14%
7,O=[N+]([O-])c1cccc(C(=Nc2ccc(Cl)cc2)NO)c1,-11.5%
8,CCOC(=O)C1(Cc2ccccc2)CCCN(C(=O)C=C(C)C)C1 (centres unmarked),13.2%
9,COc1ccc([C@@H]2[C@@H]3C(=O)N(C(C)(C)C)C(=O)[C@@H]3[C@]3(C)C(=O)N(c4ccccc4)C(=O)N23)cc1,-19.4%
10,Cc1nnsc1C(=O)Nc1ccc(S(=O)(=O)N2CCC(C)CC2)cc1,23.7%
11,Cc1noc(NC(=O)c2cccc(C(F)(F)F)c2)c1Cl,3.3%
12,CC(=O)OCC1OC(n2cc(F)c(=O)[nH]c2=O)C(OC(C)=O)C1OC(C)=O (centres unmarked),1.38%
13,CC(C)C[C@H](NC(=O)NCc1ccc(F)cc1)C(=O)O,-0.885%
14,COc1cc(C2C(C(=O)c3ccc(C)o3)=C(O)C(=O)N2CCCn2ccnc2)cc(OC)c1OC (centres unmarked),-9.57%
15,Cc1ccnc(NC(=O)CNC(=O)c2ccc(C)s2)c1,3.94%
16,Cc1ccc(NS(=O)(=O)c2coc(C(N)=O)c2)cc1F,3.11%
17,O=C(c1ccc(S(=O)(=O)N2CCOCC2)cc1)N1CCOCC1,12%
18,O=C(CSc1nc2ccccc2c(=O)n1CCC(=O)N1CCN(c2ccccc2)CC1)NCC1CCCO1 (centres unmarked),-45.6%
19,Cc1nnsc1NC(=O)OCc1ccccc1Cl,2.2%
20,COC(=O)c1ccc(CSc2nnc3nc(C)cc(C)n23)cc1,1.98%
21,COc1ccccc1-c1nc(C#N)c(N2CCc3ccccc3C2)o1,2.57%
22,COc1ccc(OC)c(C(=O)NC(CC(N)=O)c2ccc(N3CCC(N4CCCC4)CC3)c([N+](=O)[O-])c2)c1 (centres unmarked),5.1%

row,SMILES,"hERG current change (%, negative = inhibition) at 10uM"
1,CCOCCn1c(CN2CCN(C)CC2)nc2c1c(=O)n(C)c(=O)n2C,3.97%
2,CCN(CC)CCN(C(=O)c1c(F)cccc1F)c1nc2cc(C)cc(C)c2s1.Cl,-11.1%
3,N#Cc1c(-c2ccccc2)cc(-c2ccccc2)[nH]c1=O,22.2%
4,c1ccc(CC(Nc2ccccn2)c2ccccc2)cc1 (centres unmarked),-52.8%
5,O=C(CCn1nnnc1CN1CCOCC1)N1CCC(c2ccccc2Cl)C1 (centres unmarked),0.252%
6,Cc1cc(C)nc(N2C(=O)CC(C(C)c3ccccc3)C2=O)n1 (centres unmarked),18.2%
7,Cc1nn(-c2ccccc2)c(C)c1C(=O)OCC(=O)NC(=O)NC1CCCCC1,0.462%
8,CCC1(c2ccccc2)NC(=O)N(CC(=O)Nc2cccc(C#N)c2)C1=O (centres unmarked),1.28%
9,O=CN1CCN(C(=O)C(=O)c2cn(CC(=O)N3CCCCC3)c3ccccc23)CC1,12%
10,CCOc1ccccc1CN1CCNC(=O)C1CC(=O)N(C)CCc1ccccn1 (centres unmarked),14%
11,CC(C)C(=O)NC(=S)Nc1nnn(C)n1,11.3%
12,Cc1noc(C)c1C(c1ccccc1)c1ccccc1,-16.9%
13,O=[N+]([O-])c1ccccc1S(=O)(=O)N1CCN(c2ccccc2)CC1,-20.1%
14,COc1ccccc1N1CCN(S(=O)(=O)CCNC(=O)CC2CCCCC2)CC1,-0.45%
15,Cc1ccc(NC(=O)C(c2ccc(Cl)cc2Cl)N2CCCC2)cc1 (centres unmarked),-2.49%
16,COc1ccc2nc(C)cc(SCC(=O)N3CCCCC3)c2c1,-19.4%
17,CC(C)C(OC(=O)c1nsc(Cl)c1Cl)C(=O)NCC1CCCO1 (centres unmarked),2.88%
18,COc1ccc(NC(=O)Nc2ccccc2F)c([N+](=O)[O-])c1,9.62%
19,COc1ccc(NC(=O)CSc2nc(C)cs2)c(OC)c1,7.31%
20,O=c1cc(-c2c(F)c(F)c(F)c(F)c2F)oc2c(F)c(F)c(F)c(F)c12,1.28%
21,CCc1ccc(N(CC(=O)NCc2cccnc2)S(=O)(=O)c2ccccc2)cc1,-27%
22,CN(c1ccccc1)S(=O)(=O)c1ccccc1Br,3.35%
